Experimental findings from patent US20100074867A1, “P1-NONEPIMERIZABLE KETOAMIDE INHIBITORS OF HCV NS3 PROTEASE” (Schering Corporation Patent Department, K-6-1; 1990, priority 2007, published 2010) are described below.

The assay has as its target HCV NS3/NS4A protease (strain 1a) (Hepatitis C virus genotype 1a, UniProt P27958). As to the kind of experiment: HCV continuous spectrophotometric protease assay. Type of assay: biochemical. As to conditions: ranges of Ki* values in nM, read-out: Ki*. The source says:
Spectrophotometric Assay Spectrophotometric assay for the HCV serine protease can be performed on the inventive compounds by following the procedure described by R. Zhang et al, Analytical Biochemistry, 270 (1999) 268-275, the disclosure of which, is incorporated herein by reference. The assay based on the proteolysis of chromogenic ester substrates is suitable for the continuous monitoring of HCV NS3 protease activity. The substrates are derived from the P side of the NS5A-NS5B junction sequence (Ac-DTEDVVX(Nva), where X=A or P) whose C-terminal carboxyl groups are esterified with one of four different chromophoric alcohols (3- or 4-nitrophenol, 7-hydroxy-4-methyl-coumarin, or 4-phenylazophenol). Illustrated below are the synthesis, characterization and application of these novel spectrophotometric ester substrates to high throughput screening and detailed kinetic evaluation of HCV NS3 protease inhibitors.
• Materials: Chemical reagents for assay related buffers are obtained from Sigma Chemical Company (St. Louis, Mo.). Reagents for peptide synthesis were from Aldrich Chemicals, Novabiochem (San Diego, Calif.), Applied Biosystems (Foster City, Calif.) and Perseptive Biosystems (Framingham, Mass.). Peptides are synthesized manually or on an automated ABI model 431A synthesizer (from Applied Biosystems). UV/VIS Spectrometer model LAMBDA 12 was from Perkin Elmer (Norwalk, Conn.) and 96-well UV plates were obtained from Corning (Corning, N.Y.). The prewarming block can be from USA Scientific (Ocala, Fla.) and the 96-well plate vortexer is from Labline Instruments (Melrose Park, Ill.). A Spectramax Plus microtiter plate reader with monochrometer is obtained from Molecular Devices (Sunnyvale, Calif.). […] Protein concentrations are determined by the Biorad dye method using recombinant HCV protease standards previously quantified by amino acid analysis. Prior to assay initiation, the enzyme storage buffer (50 mM sodium phosphate pH 8.0, 300 mM NaCl, 10% glycerol, 0.05% lauryl maltoside and 10 mM DTT) is exchanged for the assay buffer (25 mM MOPS pH 6.5, 300 mM NaCl, 10% glycerol, 0.05% lauryl maltoside, 5 μM EDTA and 5 μM DTT) utilizing a Biorad Bio-Spin P-6 prepacked column. Substrate Synthesis and Purification: The synthesis of the substrates is done as reported by R. Zhang et al, (ibid.) and is initiated by anchoring Fmoc-Nva-OH to 2-chlorotrityl chloride resin using a standard protocol (K. Barlos et al, Int. J. Pept. Protein Res., 37 (1991), 513-520). The peptides are subsequently assembled, using Fmoc chemistry, either manually or on an automatic ABI model 431 peptide synthesizer. […] The combined filtrate and DCM wash is evaporated azeotropically (or repeatedly extracted by aqueous Na2CO3 solution) to remove the acid used in cleavage. The DCM phase is dried over Na2SO4 and evaporated.
The ester substrates are assembled using standard acid-alcohol coupling procedures (K. Holmber et al, Acta Chem. Scand., B33 (1979) 410-412). Peptide fragments are dissolved in anhydrous pyridine (30-60 mg/ml) to which 10 molar equivalents of chromophore and a catalytic amount (0.1 eq.) of para-toluenesulfonic acid (pTSA) were added. Dicyclohexylcarbodiimide (DCC, 3 eq.) is added to initiate the coupling reactions. Product formation is monitored by HPLC and can be found to be complete following 12-72 hour reaction at room temperature. Pyridine solvent is evaporated under vacuum and further removed by azeotropic evaporation with toluene. The peptide ester is deprotected with 95% TFA in DCM for two hours and extracted three times with anhydrous ethyl ether to remove excess chromophore. The deprotected substrate is purified by reversed phase HPLC on a C3 or C8 column with a 30% to 60% acetonitrile gradient (using six column volumes).

Where only a bound is given, the exact number is not on record here.

For orientation: Ki means a measure of affinity in units of concentration, obtained from inhibition or displacement. `CC[C@@H]1C[C@@]1(NC(=O)[C@@H]1[C@@H]2[C@H](CN1C(=O)[C@@H](NC(=O)NC1([C@@H](C)S(=O)(=O)C(C)(C)C)CCCCC1)C1(C)CCCCC1)C2(C)C)C(=O)C(=O)NCC1CC1` [72Z]: the Ki fell in the range of 1000 to 5000 nM.

As for `CCNC(=O)C(=O)[C@@]1(NC(=O)[C@@H]2[C@@H]3[C@H](CN2C(=O)[C@@H](NC(=O)N[C@H](CN2C(=O)CC(C)(C)CC2=O)C(C)(C)C)C2(C)CCCCC2)C3(C)C)C[C@@H]1CC` [74Z], the Ki is below 500 nM.

Regarding `CCNC(=O)C(=O)[C@]1(NC(=O)[C@@H]2[C@@H]3[C@H](CN2C(=O)[C@@H](NC(=O)N[C@H](CN2C(=O)CC(C)(C)CC2=O)C(C)(C)C)C2(C)CCCCC2)C3(C)C)C[C@H]1CC` [75Z], the Ki lay in the range of 1000 to 5000 nM.

Turning to `CC[C@H]1C[C@]1(NC(=O)[C@@H]1[C@@H]2[C@H](CN1C(=O)[C@@H](NC(=O)N[C@H](CN1C(=O)CC(C)(C)CC1=O)C(C)(C)C)C1(C)CCCCC1)C2(C)C)C(=O)C(=O)NCC1CC1` [76Z], the inhibitory constant (Ki) is below 500 nM.

Turning to `CC[C@@H]1C[C@@]1(NC(=O)[C@@H]1[C@@H]2[C@H](CN1C(=O)[C@@H](NC(=O)N[C@H](CN1C(=O)CC(C)(C)CC1=O)C(C)(C)C)C1(C)CCCCC1)C2(C)C)C(=O)C(=O)NCC1CC1` [77Z], the Ki is 5000 to 10000 nM.

Take `CC[C@H]1C[C@]1(NC(=O)[C@@H]1[C@@H]2[C@H](CN1C(=O)[C@@H](NC(=O)N[C@H](CN1C(=O)CC(C)(C)CC1=O)C(C)(C)C)C1(C)CCCCC1)C2(C)C)C(=O)C(=O)NC1CC1` [78Z]: the Ki was below 500 nM.

Take `CC[C@@H]1C[C@@]1(NC(=O)[C@@H]1[C@@H]2[C@H](CN1C(=O)[C@@H](NC(=O)N[C@H](CN1C(=O)CC(C)(C)CC1=O)C(C)(C)C)C1(C)CCCCC1)C2(C)C)C(=O)C(=O)NC1CC1` [79Z]: the Ki lay within 500 to 1000 nM.

With `CC[C@@H]1C[C@@]1(NC(=O)[C@@H]1[C@@H]2[C@H](CN1C(=O)[C@@H](NC(=O)NC1([C@@H](C)S(=O)(=O)C(C)(C)C)CCCCC1)C1(C)CCCCC1)C2(C)C)C(=O)C(=O)NC1CC1` [80Z], the inhibition constant (Ki) was below 500 nM.

`CC[C@@H]1C[C@@]1(NC(=O)[C@@H]1[C@@H]2[C@H](CN1C(=O)[C@@H](NC(=O)NC1([C@@H](C)S(=O)(=O)C(C)(C)C)CCCCC1)C1(C)CCCCC1)C2(C)C)C(=O)C(N)=O` [81Z]: the Ki lay in the range of 1000 to 5000 nM.

For the compound `CCC[C@@H]1C[C@@]1(NC(=O)[C@@H]1[C@@H]2[C@H](CN1C(=O)[C@@H](NC(=O)NC1([C@H]3CCCS3(=O)=O)CCCCC1)C(C)(C)C)C2(C)C)C(=O)C(=O)NC1CC1` [82Z], the Ki was 500 to 1000 nM.

Turning to `CC[C@@H]1C[C@@]1(NC(=O)[C@@H]1[C@@H]2[C@H](CN1C(=O)[C@@H](NC(=O)NC1([C@H]3CCCS3(=O)=O)CCCCC1)C(C)(C)C)C2(C)C)C(=O)C(N)=O` [83Z], the inhibition constant Ki fell in the range of 1000 to 5000 nM.

As to `CC[C@@H]1C[C@@]1(NC(=O)[C@@H]1[C@@H]2[C@H](CN1C(=O)[C@@H](NC(=O)NC1(CS(=O)(=O)C(C)(C)C)CCCCC1)C(C)(C)C)C2(C)C)C(=O)C(=O)NC1CC1` [84Z], the Ki fell in the range of 500 to 1000 nM.

For `CC[C@@H]1C[C@@]1(NC(=O)[C@@H]1[C@@H]2[C@H](CN1C(=O)[C@@H](NC(=O)N[C@H](CN(C)S(C)(=O)=O)C(C)(C)C)C(C)(C)C)C2(C)C)C(=O)C(=O)NC1CC1` [85Z], the Ki lay within 500 to 1000 nM.

Take `CC[C@H]1C[C@]1(NC(=O)[C@@H]1[C@@H]2[C@H](CN1C(=O)[C@@H](NC(=O)N[C@H](CN(C)S(C)(=O)=O)C(C)(C)C)C(C)(C)C)C2(C)C)C(=O)C(=O)NC1CC1` [86Z]: the Ki is below 500 nM.

With `CC[C@H]1C[C@]1(NC(=O)[C@@H]1[C@@H]2[C@H](CN1C(=O)[C@@H](NC(=O)NC1(CS(=O)(=O)C(C)(C)C)CCCCC1)C(C)(C)C)C2(C)C)C(=O)C(=O)NC1CC1` [87Z], the Ki is below 500 nM.
